This is one part of the list. Shown are side measurements of this screen, not its main read-out; they come without a call.

This test can be described thus: compounds boosting herpes simplex virus growth – fold increase, host cell viability (AID 1956). Further: tested in PC3 cells. The following applies: HSV replication augmentation in cells; fold increase: measured here: primary screen fold increase 10 uM, at 10 µM, stronger effect = higher value; viability: measured here: host cell viability series, at 25 µM, stronger effect = lower value.
The compound `Cc1ccc(S(=O)(=O)Nc2nc3ccccc3nc2Nc2cccc(S(=O)(=O)N3CCCC3)c2)cc1` registered a fold increase of 1.35. As to `COCCOC(=O)C1=C(C)NC(=O)NC1c1c(Cl)nc2c(C)cccn2c1=O` (stereo unspecified), the fold increase was 1.86 and the viability (as a rule, a read-out of living cells in per cent, often relative to untreated cells) turned out to be 98.8%.

Turning to `Oc1ccc(O)c(Cc2nc3ccccc3[nH]2)c1`, the fold increase amounted to 1.35 and the viability was 84.5%. `Cc1cc(/C=C2\NC(=S)N(C)C2=O)ccc1N1CCCC1`: the fold increase amounted to 8.61 and the viability was 85.6%.

`COCCn1cc(C(=O)N2CCN(C)CC2)c2c3ccccc3n(C)c2c1=O`: the fold increase stood at 1.44 and the viability is 92.8%. For `CCOc1ccc(C2C=C(c3ccc(C)cc3)Nc3ncnn32)cc1` (stereo unspecified), the fold increase amounted to 1.96 and the viability is 101%. In turn, `O=C(O)c1ccccc1-c1ccc(/C=C/c2cc(C(F)(F)F)[nH]c(=O)n2)o1` yielded a fold increase of 1.32.

Consider `CC1(C)CC(C(=O)NCCC(c2ccccc2)c2ccco2)CCO1` (stereo unspecified), for which the fold increase is 1.34 and the viability stood at 94.1%. With `CN(C(=O)c1c(Cl)cnn1C)C12CC3CC(CC(C3)C1)C2`, the fold increase amounted to 1.34 and the viability is 94%. With `COc1ccccc1Cn1c(-c2ccco2)nc2nc3ccccc3nc21`, the fold increase was determined as 1.82 and the viability turned out to be 88.5%.

Take `CC(C)OCCCNC(=O)c1cc2c(=O)n(C)c3ccccc3c2n1C`: the fold increase came out at 1.32 and the viability was 88%. For `O=C1CC(C(=O)N(CC2CCCO2)C(C(=O)NC2CCCCC2)c2ccncc2)CS1` (stereo unspecified), in that order: 1.32 and 92.7%. Compound `Cc1cnc(Sc2ncccc2[N+](=O)[O-])nc1` had a fold increase of 1.32.

With `CCN(CC)c1ccc2cc(C(=O)Nc3ccccn3)c(=O)oc2c1`, the fold increase came to 1.32 and the viability was found to be 101%.

Turning to `Cc1ccc(NC2=C/C(=N\S(=O)(=O)c3cccs3)c3ccccc3C2=O)c(C)c1`, the fold increase came out at 1.92. Regarding `Cc1ccccc1N1C(=O)C(Cc2ccc(F)cc2)S/C1=C(\C#N)C(N)=O` (stereo unspecified), the fold increase worked out at 2.31 and the viability worked out at 97.4%. With `O=c1c(/C=C(\O)c2ccc(F)cc2)nc2ccccc2n1-c1ccccc1`, the fold increase was determined as 1.44 and the viability came out at 92.1%. As to `Oc1ccc(-c2onc3ccc(Cl)cc23)cc1`, the fold increase is 1.58 and the viability stood at 98.5%. For `CCCC1OC23CCCCC2C(C#N)(C#N)C1(C#N)C(=N)O3` (stereo unspecified), the fold increase was 1.41 and the viability was determined as 103%. Take `CN(C)c1ccc(/C=C2\NC(=S)N(Cc3ccccc3)C2=O)cc1`: the fold increase came out at 2.36 and the viability stood at 89%. Regarding `Cc1nn(C(C)C(=O)NNC(=S)Nc2ccc(F)cc2)c(C)c1[N+](=O)[O-]` (stereo unspecified), the fold increase turned out to be 1.34 and the viability came out at 96%. On to `Cc1c(C(=O)NC(C)CN2CCCCC2)oc2ccccc12` (stereo unspecified), for which the fold increase was 1.32 and the viability was 104%. `CCc1ccccc1NC(=S)NC1CC2CCCC(C1)N2Cc1cccs1` (stereo unspecified): the fold increase is 1.38 and the viability was 87.2%. On to `COc1ccc(C2C(C(C)=O)=C(O)C(=O)N2c2nccs2)cc1OC` (stereo unspecified), for which the fold increase turned out to be 1.33 and the viability was determined as 100%. `O=C(Nc1ccccc1)c1cccc(-c2nnc(-c3ccccc3)o2)c1` showed a fold increase of 1.16. Regarding `CCCCCCCCNC(=O)/C(C#N)=C/c1ccccc1[N+](=O)[O-]`, the fold increase worked out at 1.82 and the viability came to 86.2%.

For `Cc1cc(C)nc(SCc2nnc(SCC(=O)O)n2-c2ccccc2)n1`, the fold increase was 1.51 and the viability was 99.4%. The compound `N#C/C(=C\c1ccc(C(=O)O)cc1)c1nc2sc3c(c2c(=O)[nH]1)CCCC3` had a fold increase of 1.93. As to `COc1cccc(-c2nn(-c3ccccc3)cc2CNC(C)Cn2cncn2)c1` (stereo unspecified), the fold increase turned out to be 1.53 and the viability was 90.7%. As to `COc1ccc(NC(=O)CSc2ccc3c4c(cccc24)C(=O)c2ccccc2-3)cc1`, the fold increase is 2.89 and the viability came to 50.8%. On to `Cc1ccc(CN2CCNC2=O)cc1`, for which the fold increase stood at 1.33 and the viability was found to be 97%. In the case of `O=C(O)c1cc(-c2ccc(/C=N/Nc3ccc([N+](=O)[O-])cn3)o2)ccc1Cl`, the fold increase was 1.33 and the viability was found to be 97.5%. For `COc1ccc(-c2[nH]ncc2CNCC(C)(C)N2CCOCC2)cc1F` the same measures were 1.6 and 94.8%. In turn, `COc1ccc(C)cc1-n1c(SCC(=O)Nc2cc(C)on2)nc2sc(C)c(C)c2c1=O` showed a fold increase of 1.22. For the compound `Cc1cccc2nc3c(nc12)-c1ccccc1C3=O`, the fold increase worked out at 1.4 and the viability was determined as 92.7%.

As for `Cc1cc(C)c2cc(C#N)c(SCC(=O)Nc3ccc4c(c3)OCO4)nc2c1`, the fold increase came to 1.53 and the viability was 96.6%.

As for `CC(=O)c1sc(C(C)(C)C)cc1NC(=O)CCC(=O)O`, the fold increase amounted to 1.36 and the viability came out at 102%.

`CC(C)(C)C(=O)NCCn1ccc2ccccc21`: the fold increase is 1.48 and the viability was found to be 95.8%. On to `Cc1ccc2cc(NC(=O)Cc3ccccc3)ccc2n1`, for which the fold increase amounted to 1.33 and the viability is 107%.

As for `C=CCc1cccc(/C=C/c2cc(=O)c3ccccc3[nH]2)c1O`, the fold increase is 1.41 and the viability worked out at 83.6%. With `CCN1CCN(C2=CC3=CC(=C(C#N)C#N)CCC3CC2)CC1` (stereo unspecified), the fold increase is 9.09 and the viability is 95.9%. For `Nc1ccc(-n2c(N)c(C(=O)NCc3ccc4c(c3)OCO4)c3nc4ccccc4nc32)cc1`, the fold increase is 1.23.

With `N#C/C(=C\c1ccc(N2CCOCC2)o1)c1nc2ccccc2[nH]1`, the fold increase was found to be 13.9 and the viability was 83.9%. Regarding `Nc1ccc(N2CCN(C(=O)c3cccs3)CC2)cc1`, the fold increase was found to be 1.25.

As to `CC[n+]1c(/C=C2\Sc3ccccc3N2C)ccc2cccc(C)c21`, the fold increase worked out at 8.43 and the viability is 16.6%. As to `Cc1ccc(CSc2nnc(CS(=O)Cc3ccc(Cl)cc3Cl)n2C)cc1` (stereo unspecified), the fold increase was 1.44 and the viability came to 87.3%. `Cc1c(Br)c([N+](=O)[O-])nn1C(C)C(=O)Nc1nccs1` (stereo unspecified): the fold increase is 1.37 and the viability turned out to be 89.1%. `N#C/C(=C\c1ccc(N2CCCCC2)o1)C(N)=O` gave a fold increase of 2.39.
